This series has as its system ATP. Put plainly: switch fluorescence ratio, 500 uM ATP over buffer (Cy3 cluster intensity, sum of 5 cycles each) (fold (ratio)); higher = stronger signal-on switching upon ATP binding; sequences stand for … in TCGTCGGCAGCGTCAGATGTGTATAAGAGACAGTTTTTTTTTTTTTTTTTTTTTTTTT…TC. To be noted: aptamer strand: ATP DNA aptamer (quencher-CACCTGGGGGAGTATTGCGGAGGAAGG + anchor), 100 nM annealed; ATP concentration: 500 uM; one replicate. The gist of the method: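 Cy3-labelled switching-strand clusters on a modified Illumina MiSeq flow-cell were annealed to 100 nM quencher-labelled ATP aptamer, imaged in selection buffer, then imaged after 15 min with 500 uM ATP at 22 °C. Five buffer/ATP cycles ran, with NaOH stripping and re-annealing between them. The fluorescence ratio is summed target-cycle over summed buffer-cycle Cy3 intensity per cluster, averaged per switch-domain sequence. Clusters outside 100-1000 RFU were excluded.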

From the supplement of paper PMC10126150 come the findings set out here.

Values marked as one replicate rest on one cluster of the flow cell; about a third of the high ones do not repeat.
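Also: ATP exposure 15 min at 22 °C before imaging.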

As for CAACTGTCTA, the switch fluorescence ratio was 0.968.

GGTTGTAGTA: the switch fluorescence ratio is 0.996.

GGACGAAGT: the switch fluorescence ratio worked out at 1.04.

In the case of AAATCGGCCA, the switch fluorescence ratio turned out to be 0.999.

In the case of AGCAATGGTG, the switch fluorescence ratio amounted to 1.46.

As for TCGTGCGATT, the switch fluorescence ratio worked out at 1.16.

As to TTCGGTTGTC, the switch fluorescence ratio came to 1.17.

On to CAAGTGGGAG, for which the switch fluorescence ratio was found to be 1.01.

Consider TCCGTAGGG, for which the switch fluorescence ratio turned out to be 1.01.

Turning to CGATTAGCTA, the switch fluorescence ratio was 1.05.

As for CTATTTCATT, the switch fluorescence ratio was determined as 1.01.

Turning to TTCGGGTA, the switch fluorescence ratio was determined as 1.04.

Regarding AAGACCTTCT, the switch fluorescence ratio is 1.67.

GCTCTACAGT: the switch fluorescence ratio was 0.975.

Take ATCATTGG: the switch fluorescence ratio was determined as 0.99.

On to AATACTAGGA, for which the switch fluorescence ratio is 1.13.

Consider TACCCTCCCA, for which the switch fluorescence ratio worked out at 1.26.

As for AAGTTCTAGC, the switch fluorescence ratio came out at 0.948.

As for CGCTGGTCAG, the switch fluorescence ratio worked out at 0.956.

As for CTGGTGGGGA, the switch fluorescence ratio came out at 0.994.

As for CGTCCCCAGA, the switch fluorescence ratio was 1.29.

GGCTAACGTG: the switch fluorescence ratio was 1.01.

As for ATTGCTATCG, the switch fluorescence ratio came to 1.

In the case of GAGGGAGGG, the switch fluorescence ratio came out at 0.934.

In the case of ACATTGACAA, the switch fluorescence ratio worked out at 1.05.

With TTGGTCTCTC, the switch fluorescence ratio stood at 0.986.

Take GTCGAGAGGA: the switch fluorescence ratio stood at 0.967.

With CCTTAGAGGC, the switch fluorescence ratio came to 1.01.

With TCCCGCCAAG, the switch fluorescence ratio came out at 1.55.

For the sequence CGTATAGATA, the switch fluorescence ratio was found to be 1.01.

Consider AACCAGACGG, for which the switch fluorescence ratio was determined as 1.16.

Take ACACAATCCA: the switch fluorescence ratio worked out at 1.01.

As for CGGGACGTTG, the switch fluorescence ratio came to 0.978.

For the sequence TGGTAGCTTT, the switch fluorescence ratio stood at 0.984.

With TCGGTCCGA, the switch fluorescence ratio is 1.02.

In the case of GGTCATCGGA, the switch fluorescence ratio is 0.952.

As for GCTTCGGGCG, the switch fluorescence ratio turned out to be 0.978.

Turning to TAGGCCTTCG, the switch fluorescence ratio came to 1.19.

On to TTGTCGGGTC, for which the switch fluorescence ratio was found to be 1.

TATATCGGGC: the switch fluorescence ratio was 0.971.

Turning to GTTTTGCTGA, the switch fluorescence ratio is 1.02.

On to GGGCCCTCGC, for which the switch fluorescence ratio stood at 1.01.

CTCTTTATAA: the switch fluorescence ratio was 1.01.

Regarding TTTCCCAGCT, the switch fluorescence ratio worked out at 1.01.

For the sequence ATGTATTATT, the switch fluorescence ratio was found to be 1.01.

For the sequence GTTTAAGCTA, the switch fluorescence ratio was 1.07.

As to ACATTAGCGA, the switch fluorescence ratio worked out at 0.762.

On to TTACTTAGCT, for which the switch fluorescence ratio came to 1.04.

As to CGCAACGAAT, the switch fluorescence ratio turned out to be 1.05.

Take AAATAGCGTG: the switch fluorescence ratio worked out at 0.978.

On to TCAGGGAAGA, for which the switch fluorescence ratio is 0.969.

Turning to TTTCTTATCC, the switch fluorescence ratio worked out at 0.969.

For the sequence ATATTCTGTT, the switch fluorescence ratio is 0.921.

Turning to TAGATGCCTC, the switch fluorescence ratio turned out to be 1.

Regarding CGGGTAGCGC, the switch fluorescence ratio is 0.998.

For the sequence TTGCGCTTTT, the switch fluorescence ratio turned out to be 1.07.

As to GCTCGAGGTT, the switch fluorescence ratio amounted to 1.01.

As to TTAGGCTAAG, the switch fluorescence ratio worked out at 0.995.

AGAGAGGTGG: the switch fluorescence ratio turned out to be 1.

With ACAAAAAAGA, the switch fluorescence ratio was 0.994.

Regarding GTTGGCCTGT, the switch fluorescence ratio was 0.975.

Turning to AGGTCATCTT, the switch fluorescence ratio amounted to 0.991.

With TCGTTAGGCG, the switch fluorescence ratio was determined as 0.948.

Take AATATTGTAC: the switch fluorescence ratio was found to be 0.998.

For the sequence ACGTCCCTGT, the switch fluorescence ratio came out at 1.01.

With GCAGGTTCGT, the switch fluorescence ratio amounted to 0.976.

As for CTGAGCCG, the switch fluorescence ratio amounted to 1.07.

GAGGTGACTT: the switch fluorescence ratio is 1.03.

Turning to TACATTTTCT, the switch fluorescence ratio turned out to be 0.986.

On to GGGATTCAAG, for which the switch fluorescence ratio was 1.01.

As to TTGAGTCATA, the switch fluorescence ratio came to 1.02.

On to CTATTTTCCG, for which the switch fluorescence ratio turned out to be 0.984.

On to GGTTGCAATT, for which the switch fluorescence ratio is 1.39.

CACGGTGGCA: the switch fluorescence ratio amounted to 0.979.

In the case of GTCCGATTGA, the switch fluorescence ratio was determined as 0.982.

Regarding CTGAATCTC, the switch fluorescence ratio came out at 1.03.

As for CGTCATGCAA, the switch fluorescence ratio came out at 3.2.

Consider AAATGTGGTT, for which the switch fluorescence ratio came to 1.01.

In the case of GTGATAGGTG, the switch fluorescence ratio was 1.11.

On to TTCGTCTAT, for which the switch fluorescence ratio is 1.01.

For CAGAGCATGG, the switch fluorescence ratio was determined as 1.02.

For the sequence ATCGGCCCAG, the switch fluorescence ratio is 0.963.

For TTCGAGTCAA, the switch fluorescence ratio was determined as 1.51.

Regarding TGAAATGGGC, the switch fluorescence ratio amounted to 0.956.

As to AGATGTGTTG, the switch fluorescence ratio was 1.

With AGGCCTGGAG, the switch fluorescence ratio turned out to be 0.96.

Consider AAACTCCGAG, for which the switch fluorescence ratio worked out at 1.22.

In the case of GAATCTAGGA, the switch fluorescence ratio was 1.02.

For the sequence CGCTAACTGT, the switch fluorescence ratio was determined as 1.06.

CCAATGGTT: the switch fluorescence ratio amounted to 1.02.

With TTTTCCACCA, the switch fluorescence ratio worked out at 1.02.

Take GGATAGTCGC: the switch fluorescence ratio was 0.958.

As to CATTCCTGAC, the switch fluorescence ratio worked out at 1.49.

For the sequence GTCACACTGA, the switch fluorescence ratio amounted to 1.01.

Regarding TTTCCATAG, the switch fluorescence ratio came to 1.06.

As for AGGGCTCCGA, the switch fluorescence ratio was 1.03.

For TACTAGGAA, the switch fluorescence ratio is 1.

As for ATCAGTGCCT, the switch fluorescence ratio worked out at 1.03.

As for TACTCAGAG, the switch fluorescence ratio came to 1.

TTAGTCGTT: the switch fluorescence ratio was 0.975.

Turning to CCCCCTCTTG, the switch fluorescence ratio stood at 1.12.

Regarding TTACTGGGAT, the switch fluorescence ratio was 1.06.

TTTCGCCCTC: the switch fluorescence ratio was determined as 1.05.

With ACTCGTGGAG, the switch fluorescence ratio was 1.01.

As to CCGCTTTGGC, the switch fluorescence ratio came out at 1.86.

Consider TCAGAAAA, for which the switch fluorescence ratio worked out at 0.988.

Take AATTTGTGA: the switch fluorescence ratio worked out at 0.977.

With AAGAGGCAGA, the switch fluorescence ratio was determined as 0.998.

Turning to TGAGGCCTGG, the switch fluorescence ratio turned out to be 1.03.

Turning to TAAATTGCAC, the switch fluorescence ratio was 1.07.

Consider TCCCGGAGCG, for which the switch fluorescence ratio is 1.91.

As for CTTAAAAGAA, the switch fluorescence ratio came out at 0.988.

Turning to TGCATAAATG, the switch fluorescence ratio is 1.03.

In the case of CGAGGTAATC, the switch fluorescence ratio stood at 2.51.

In the case of CATTTATTAA, the switch fluorescence ratio worked out at 0.99.

As to CCTACCTGCG, the switch fluorescence ratio came to 2.18.

For TTTGATTCGC, the switch fluorescence ratio came out at 1.08.

Turning to CTGTGTCACG, the switch fluorescence ratio is 0.956.

On to TAGCCGTTAT, for which the switch fluorescence ratio is 0.98.

AAGGGTAGAC: the switch fluorescence ratio was found to be 1.01.
